Data from PubChem BioAssay AID1347417 (National Center for Advancing Translational Sciences (NCATS), 2020).
Out of some 120,000 compounds screened, about 5,300 (4.4%) were called active. Inconclusive results, whose numbers are uncertain, are shown with a selection of clear calls. Calls come from the whole dose curve; as a rule, active = well fitted inhibition curve with a large enough effect; inconclusive = small, poorly fitted or top-dose-only effect; inactive = no such curve, though single readings can be large or run the other way. A potency beside an inconclusive call is a rough fit, not a confirmed value.

assay: qHTS Primary assay for Inhibitors of Plasmodium falciparum Dd2 growth in vitro; note: nearly all actives have a fitted effect of over 65% in size;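 for activity, negative = inhibition: plate controls were DMSO vehicle for no effect and reference drug for full effect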; conditions: P. falciparum Dd2 growth, SYBR Green, 72 h; activity, negative = inhibition: at 28.9 µM (top of the series) unless noted; series mostly up to 28.9 µM
Method in brief: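 Infected erythrocytes (Dd2, 0.3% parasitemia, 2.5% hematocrit final) are added to compound in RPMI-1640/Albumax II medium, grown 72 h at 37C in low oxygen, then lysed with saponin/Triton-X containing SYBR Green and read by fluorescence.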
Potency is the fitted concentration of half-maximal effect; tags give direction and shape of the fitted curve.

| SMILES | Potency | activity, negative = inhibition |
| --- | --- | --- |
| CC(C)c1ccc(CC(=O)N2CCCc3ncc(C(=O)NCCOc4ccccc4)cc32)cc1 | inconclusive: 11.2 µM [inhibitor, single point] | – |
| CC(=O)N1CCc2cc(CNS(=O)(=O)c3ccc(Br)s3)ccc21 | inactive | – |
| CN(C)[C@@H]1CN(C(=O)c2ccc(F)cc2)CC[C@]1(O)c1ccccc1 | – | inactive: -11% [at 5.79 µM] |
| COc1ccc(CNC(=O)C2(C)CCCCC(=O)N2)cc1OC (centres undefined) | inactive | – |
| Cc1cccc(CNC(=O)C2(c3ccc(NS(C)(=O)=O)cc3)CCCCC2)c1 | inactive | – |
| CCOc1ccccc1C(=O)N1CC2CC(C1)[C@H]1CCCC(=O)N1C2 (some centres undefined) | inactive | – |
| O=S(=O)(Cc1ccccc1F)N1CCCC(Cn2c(C3CC3)nc3cccnc32)C1 (centres undefined) | inconclusive: 0.316 µM [inhibitor, full curve] | – |
| O=C(c1nnc(CN2CCN(CCO)CC2)n1-c1ccccc1)N1CCC[C@@H]1C(c1ccccc1)c1ccccc1 | inactive | – |
| NCc1ccc(-c2cccc(C(F)(F)F)c2)cc1 | inconclusive: 22.4 µM [inhibitor, single point] | – |
| C[C@H](C(=O)N1Cc2ccccc2CC2(CCN(C)CC2)C1)c1ccccc1 | inconclusive: 12.6 µM [inhibitor, partial curve, poor fit] | – |
| Cc1cccc2nc(C(=O)N3CCC4(CCNCC4)CC3)cn12 | inactive | – |
| CN1CCC2(Cc3ccccc3CN(C(=O)C3CCCC3)C2)C1 (centres undefined) | inconclusive: 11.2 µM [inhibitor, single point] | – |
| Cc1noc(Cn2c(=O)c3ccccc3n(CC(=O)Nc3cccc(Cl)c3C)c2=O)n1 | inconclusive: 20 µM [inhibitor, single point] | – |
| COc1cccc(CN2Cc3nc(-c4cn[nH]c4)ccc3OCC2=O)c1 | inactive | – |
| COCCCNC(=O)c1ccc(Cn2ccn3nc4c(c3c2=O)CCCC4)cc1 | inconclusive: 3.55 µM [inhibitor, single point] | – |
| CC(=O)N1CCC(N[C@@H]2CC[C@@H]2NC(=O)CCn2nnc3ccccc32)CC1 | inactive | – |
| O=C(NCCN1CCN(c2ccccc2)CC1)Nc1ccccc1Br | inconclusive: 20 µM [inhibitor, single point] | – |
| COc1ccc(CN2CCC3(Cc4ccccc4CNC3=O)C2)c(O)c1 (centres undefined) | inconclusive: 11.2 µM [inhibitor, single point] | – |
| Cc1nc(C)c(C(=O)N2CCC3(CC2)CC(N(C)Cc2ccccc2)CCO3)s1 (centres undefined) | inactive | – |
| CC(C)NC(=O)C[C@@H]1c2nc(NC(=O)N3CCOCC3)sc2C[C@@H]2[C@](C)(CO)[C@H](O)CC[C@]21C | inactive | – |
| COc1ccc(C(=O)NC[C@H]2Cn3c(-c4ccc(F)cc4)cnc3CO2)cc1 | inconclusive: 15.8 µM [inhibitor, single point] | – |
| Cc1ccccc1-n1cc(-c2ccccc2)nc1SCC(=O)Nc1ccc(F)cc1 | inconclusive: 8.91 µM [inhibitor, single point] | – |
| Cc1cc(C(F)(F)F)nn1CC(=O)NCC1Cn2cccc2C(=O)N1Cc1ccccc1 (centres undefined) | inconclusive: 11.2 µM [inhibitor, single point] | – |

| SMILES | Potency | activity, negative = inhibition |
| --- | --- | --- |
| COc1ccc(-n2c(=O)c3c4c(sc3n(Cc3cc(C)ccc3C)c2=O)CN(C(C)=O)CC4)c(OC)c1 | inconclusive: 1 µM [inhibitor, single point] | – |
| O=C1NCc2ccccc2CC12CCCCN2Cc1ccc(F)cc1 (centres undefined) | inconclusive: 10 µM [inhibitor, partial curve] | – |
| COc1ccc(C(=O)N[C@@H]2CCC[C@@H]2C(=O)NCc2cc(OC)cc(OC)c2)cc1 | inconclusive: 7.08 µM [inhibitor, partial curve] | – |
| COc1cccc(C(=O)NC2CCN(c3cc(-c4ccc(Cl)cc4)[nH]n3)C2)c1 (centres undefined) | inconclusive: 4.47 µM [inhibitor, partial curve, poor fit] | – |
| CCc1ccc2occ(CC(=O)Nc3c(C(=O)Nc4ccc(C)cc4)oc4ccccc34)c2c1 | inconclusive: 17.8 µM [inhibitor, single point] | – |
| O=C1N[C@H](CC(=O)N2CCN(c3ccc(C(F)(F)F)cn3)CC2)C(=O)Nc2ccccc21 | inconclusive: 14.1 µM [inhibitor, partial curve, poor fit] | – |
| O=c1c2nc(-c3ccsc3)ccc2ncn1Cc1ccccn1 | inactive | – |
| CC(C)c1ccc(NC(=O)OC[C@H]2C[C@@H]3CCN2C[C@@H]3c2cc(C3CCCCC3)nn2C)cc1 | inactive | – |
| CN(C)C(=O)C1CCN(C(=O)N2CC3CC(C2)[C@H]2CCCC(=O)N2C3)CC1 (some centres undefined) | inactive | – |
| Cc1n[nH]c(C)c1CNC(=O)C1CCCCC(=O)N1 (centres undefined) | inactive | – |
| O=C1NC2(CCN(Cc3ccccc3C(F)(F)F)CC2)COc2ccccc21 | inconclusive: 2.51 µM [inhibitor, partial curve, poor fit] | – |
| O=C(Nc1ccnn1C1CCN(Cc2cccc(F)c2F)CC1)c1ccccc1Cl | inconclusive: 17.8 µM [inhibitor, single point] | – |
| CCN(CC)C(=O)c1c(-c2ccccc2)noc1[C@H](C)O | inactive | – |
| O=C(O)COc1ccc(-c2nccc3c2C(=O)N(Cc2ccccc2)CC(COc2ccc4cccnc4c2)O3)cc1 (centres undefined) | inactive | – |
| CCS(=O)(=O)Nc1ccc(C(=O)N2Cc3nnc(C)n3C(C)C2)cc1 (centres undefined) | inactive | – |
| Cc1ccc(C)c(S(=O)(=O)N2[C@H]3CC[C@@H]2c2cnc(-c4ccccc4)nc2C3)c1 | inconclusive: 3.98 µM [inhibitor, partial curve] | – |
| Cc1noc(-c2cn(C3CCN(C(=O)c4cc(Cl)ccc4F)CC3)nn2)n1 | inactive | – |
| CCN1CCCC12Cc1ccccc1CN(C(C)=O)C2 (centres undefined) | inconclusive: 11.2 µM [inhibitor, partial curve] | – |
| COc1cccc(N2C(=O)NC(=NC3CCCCC3)C23CCN(CCC(C)C)C3)c1 (centres undefined) | inconclusive: 2.51 µM [inhibitor, full curve] | – |
| COCCC1(CO)CCCN(Cc2cc(Cl)cc(OC)c2OC)C1 (centres undefined) | inconclusive: 11.2 µM [inhibitor, single point] | – |
| CCC(=O)N1CCN(c2nc3c(s2)CN(C(=O)CC)CC3)CC1 | inactive | – |
| Cc1nnc(SCc2ccc(Cl)cc2)c2cc3occc3n12 | inconclusive: 10 µM [inhibitor, partial curve, poor fit] | – |
| CCCNC(=O)N1CCCC(c2nc(CCOc3cccc(C)c3)no2)C1 (centres undefined) | inconclusive: 8.91 µM [inhibitor, single point] | – |

| SMILES | Potency | activity, negative = inhibition |
| --- | --- | --- |
| Cc1cccc(C(=O)N2CCC3(CC2)CC(OCC2CC2)CCO3)c1 (centres undefined) | inactive | – |
| Cc1ccc(C#N)c(N2CCC3(CC2)CC(c2ccccc2)C(=O)N3C)n1 (centres undefined) | inconclusive: 14.1 µM [inhibitor, single point] | – |
| COc1ccc(-n2nc(C(=O)Nc3ccccc3OC)c3c4ccccc4n(C)c3c2=O)cc1Cl | inactive | – |
| COc1cccc(-c2nccc3c(=O)cc(N4CCOCC4)oc23)c1 | inconclusive: 8.91 µM [inhibitor, partial curve] | – |
| CCc1noc(-c2ccn3c(CNC(=O)CCC4CCCC4)nnc3c2)n1 | inactive | – |
| CSCC[C@@H]1NC(=O)c2cc(NC(=O)c3n[nH]c4c3CCC4)ccc2NC1=O | inconclusive: 8.91 µM [inhibitor, partial curve, poor fit] | – |
| COc1ccccc1C(=O)N1CCc2nc(C(C)C)nc(-c3ccc(O)cc3)c2C1 | inconclusive: 20 µM [inhibitor, single point] | – |
| CN(Cc1ccccc1)C1(C(=O)NC2CCC(O)CC2)Cc2ccccc2C1 (centres undefined) | inactive | – |
| O=C(CSC1=Nc2ccccc2N=C(c2ccc(F)cc2)C1)NCc1ccc(F)cc1 | inconclusive: 12.6 µM [inhibitor, single point] | – |
| COc1ccccc1NCc1cccn1-c1nnc(N2CCOCC2)s1 | inconclusive: 17.8 µM [inhibitor, single point] | – |
| CCOC(=O)C1=C(CS(=O)(=O)c2ccc(C)cc2)NC(=O)NC1c1ccc(C(C)C)cc1 (centres undefined) | inconclusive: 17.8 µM [inhibitor, single point] | – |
| Cc1cc(C)cc(N2C(=O)CSC23C(=O)N(CC(=O)NCCc2ccccc2)c2ccccc23)c1 (centres undefined) | inconclusive: 15.8 µM [inhibitor, single point] | – |
| CC(C)N1CCC(F)(c2nc(-c3ccccc3)no2)CC1 | inconclusive: 14.1 µM [inhibitor, partial curve] | – |
| CCc1nc2c(c(-c3ccc(O)cc3)n1)CCN(Cc1ccc(OC(F)(F)F)cc1)CC2 | inconclusive: 1.41 µM [inhibitor, full curve, poor fit] | – |
| CCc1noc(CN2CCC3(CC2)CC(=O)N(CCCc2ccccc2)C3)n1 | inconclusive: 8.91 µM [inhibitor, partial curve, poor fit] | – |
| CCC(=O)N1c2nc(-c3ccco3)nn2C2(CCCCC2)[C@@H]2CCCC[C@@H]21 | inconclusive: 17.8 µM [inhibitor, single point] | – |
| O=C(CCC1CCN(S(=O)(=O)c2cccc(F)c2)CC1)NCc1ccncc1 | inactive | – |
| CC(C)c1nc2c(c(-c3ccc(Cl)cc3)n1)CCN(Cc1ccc(C#N)cc1)CC2 | inconclusive: 10 µM [inhibitor, single point] | – |
| Cn1c(=O)c2c(-c3ccccc3Cl)n(-c3cc(Cl)ccc3O)cc2n(C)c1=O | active: 7.94 µM | – |
| O=C(Cn1cccc1-c1nc(-c2ccc(F)cc2)no1)N1CCN(c2ccccc2F)CC1 | inactive | – |
| O=C(COc1ccccc1)N1CC(F)(F)C[C@H]1c1nnc(C2CC2)o1 | inactive | – |
| CC(C(=O)O)N1CC2(CCC1=O)CCN(C(=O)CN1CCCC1)CC2 (centres undefined) | inactive | – |
| COc1ccc(OCCCCn2c(-c3ccc(Cl)cc3)nc3ccccc3c2=O)cc1 | inconclusive: 8.91 µM [inhibitor, single point] | – |
